# Results published in PubChem BioAssay AID686971 (National Center for Advancing Translational Sciences (NCATS), 2013).
# Among all 360,000 compounds or so, about 7,500 (2.1%) were called active. Inconclusive results, whose numbers are uncertain, are shown with a selection of clear calls. Calls follow the shape of the dose curve; as a rule, active = well fitted cell-killing curve with a large enough effect; inconclusive = small, poorly fitted or top-dose-only effect, or effect the other way, or another doubt; inactive = no such curve, though single readings can be large or run the other way. No potency is given beside an inconclusive call; the fits are too rough.
# Test: qHTS for induction of synthetic lethality in tumor cells producing 2HG: qHTS for the HT-1080-IDH1KD cell line;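 as to activity, negative = toxicity: 0% = DMSO wells and -100% = cell-free medium wells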
# Conditions: HT-1080 IDH1 knockdown viability, ATP luminescence, 48 h; activity, negative = toxicity: at 46.1 µM (top of the series) unless noted
# Method in brief: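 % activity derives from luminescence (CellTiter-Glo), normalised to DMSO and no-cell wells. HT-1080-IDH1KD cells, 750/well, had 48 h compound exposure at 37 °C.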
# Potency is read from the fitted curve at half-maximal effect; tags tell the direction and shape of the fitted curve.
SMILES,Potency,"activity, negative = toxicity"
COc1cccc(CN2CCC2(C)C(=O)Nc2cccc(Oc3ccccc3)c2)c1OC (stereo not given),"inconclusive [cytotoxic, single point]",–
O=C(Nc1cccnc1)c1coc(=O)c2ccccc12,"inconclusive [cytotoxic, single point]",–
CN(C)CCNC(=O)c1cccc(-c2cc(NC=O)c3ncc(-c4cccc(C(F)(F)F)c4)n3c2)c1,active: 16.4 µM,–
CC(C)n1c(SCC(=O)Nc2nc3c(s2)CCCC3)nc2c1c(=O)n(C)c(=O)n2C,"inconclusive [cytotoxic, single point]",–
CC(=O)NC(c1ccc(C(C)C)cc1)c1ccc2cccnc2c1O (stereo not given),"inconclusive [cytotoxic, partial curve]",–
O=C(Cn1cc(COc2ccc(Br)cc2)nn1)c1ccc(O)cc1,"inconclusive [cytotoxic, single point]",–
Cc1cccc(Cn2c(C(C)O)nc3ccccc32)c1 (stereo not given),–,inactive: -9.6%
CS(=O)(=O)c1nc([N+](=O)[O-])nn1CCCc1ccccc1,"inconclusive [cytotoxic, single point]",–
O=C(N/N=C/c1cn(-c2ccccc2)nc1-c1cc2ccccc2o1)c1ccncc1,"inconclusive [cytotoxic, partial curve]",–
COc1ccc2c(c1)C=CC1(O2)N(CCO)c2ccccc2C1(C)C (stereo not given),"inconclusive [cytotoxic, single point]",–
Cc1cc(C)c(OCCCCNCc2ccccc2)c(Cl)c1,active: 12.6 µM,–
Cn1cc(CNCc2cn(C)nc2-c2ccc(C3CCCCC3)cc2)cn1,"inconclusive [cytotoxic, single point]",–
CNC(=S)N/N=C/c1c(C)nn(-c2ccccc2)c1Cl,active: 8.91 µM,–
CCCCN(C(=O)c1ccc(S(=O)(=O)N2CCC(C)CC2)cc1)C1CCS(=O)(=O)C1 (stereo not given),–,inactive: 13.2%
Cc1sc2nc(C3CC3)nc(SCC(=O)N3c4ccccc4CC3C)c2c1C (stereo not given),"inconclusive [cytotoxic, full curve]",–
O=C(NCc1cccc(Cl)c1)C1CCC(=O)N(CC2CCCCC2)C1 (stereo not given),–,inactive: -20%
Cc1ccc(NC(C(=O)c2ccccc2)c2ccccc2)cc1 (stereo not given),"inconclusive [cytotoxic, partial curve]",–
COc1cnc(-c2ccccn2)nc1Oc1c(C)cccc1C,"inconclusive [cytotoxic, single point]",–
Cc1ccc(C(=O)C(c2ccccc2)N2Cc3ccccc3C2=N)cc1 (stereo not given),"inconclusive [cytotoxic, partial curve]",–
COc1cccc(C=CC(=O)C=CC=Cc2ccccc2)c1,"inconclusive [cytotoxic, single point]",–
CC1(S(=O)(=O)O)CC(=O)c2ccccc2C1=O (stereo not given),active: 20.6 µM,–
Cc1ccc(/C=C/C(=O)Nc2cccc3ncccc23)o1,–,inactive: 0.811%
CCCC(=O)OCCNc1cc(SCc2ccco2)c2nonc2c1[N+](=O)[O-],active: 23.1 µM,–
O=C(Nc1ccc(NC(=O)c2ccc([N+](=O)[O-])o2)cc1Cl)c1ccco1,"inconclusive [cytotoxic, partial curve]",–

SMILES,Potency,"activity, negative = toxicity"
Cc1cc(C(=O)Nc2ccc(Br)cn2)sc1C,–,inactive: -5.78%
CC(C)COc1ccc(C(=O)OC2CC(C)(C)OCC2CN(C)C)cc1 (stereo not given),"inconclusive [cytotoxic, single point]",–
CCN1C(=O)c2ccccc2S(=O)c2ccc(C(=O)N3CCCCCC3)cc21 (stereo not given),–,inactive: -6.57%
Cc1ccc(C)c(S(=O)(=O)N2CCN(C(=O)c3cc(S(=O)(=O)NCc4ccccc4)ccc3C)CC2)c1,–,inactive: -20.1%
Cc1cc(NC(=S)Nc2ccccc2)ccc1Br,"inconclusive [cytotoxic, single point]",–
CCOc1cc(Br)c(C=O)cc1OCC,active: 32.6 µM,–
CCCC#Cc1ccc2c(c1)O[C@H](CN(C)S(=O)(=O)c1cccc(OC)c1)[C@H](C)CN([C@H](C)CO)S2(=O)=O,"inconclusive [cytotoxic, single point]",–
CC(=O)c1c(N2CCOCC2)nc(=S)n(-c2ccccc2)c1C,"inconclusive [rising, single point]",–
COc1ccccc1/C=C/C=N/n1c(-c2ccccc2)n[nH]c1=S,–,inactive: -3.02%
O=C(COc1ccc(C(=O)c2ccc(F)cc2)cc1)NCc1ccc(F)cc1,"inconclusive [cytotoxic, partial curve]",–
COc1ccccc1/C=C/C=N/NC(=O)c1cc(-c2ccc(C)o2)[nH]n1,"inconclusive [cytotoxic, partial curve]",–
O=C(Nc1ccc(Cl)cc1N1CCOCC1)C1CCCO1 (stereo not given),–,inactive: 2.68%
COc1ccc(C(=O)C(CN2CCOCC2)c2ccccc2)cc1F (stereo not given),active: 11.6 µM,–
O=C1c2ccccc2NC(c2c(Cl)cccc2Cl)N1Cc1ccccc1 (stereo not given),"inconclusive [cytotoxic, single point]",–
O=C(COC(=O)c1ccccc1C(=O)c1ccccc1)Nc1cccc([N+](=O)[O-])c1,–,inactive: 0.79%
COc1ccc(NC(=O)C(c2ccnc3ccccc23)n2c(=O)c(-c3ccco3)nc3ccccc32)cc1 (stereo not given),–,inactive: -0.728%
COc1ccccc1N(C)S(=O)(=O)c1ccc(C(=O)OCC(=O)N2CCC2)cc1,active: 16.4 µM,–
COc1ccc(CC(C)N2CCN(c3ccccc3OC)CC2)cc1OC (stereo not given),"inconclusive [cytotoxic, partial curve]",–
Cc1nnc(SCC(=O)N/N=C/c2cn(-c3ccccc3)nc2-c2ccccc2)n1-c1ccccc1,"inconclusive [cytotoxic, single point]",–
CCCN=Cc1c(CCC)[nH]n(-c2nc3ccccc3s2)c1=O,"inconclusive [cytotoxic, single point]",–
CC(=O)Nc1cc(-c2cccc(C(=O)NCCN(C)C)c2)cn2c(-c3ccccc3)cnc12,active: 16.4 µM,–
CCC1=C(OC(=O)c2ccccc2)C(C)(C)C(c2ccccc2)OC1=O (stereo not given),–,inactive: 12%
N/C(=N\N=C/c1ccc(Br)cc1)N/N=C\c1ccc(Br)cc1,"inconclusive [cytotoxic, single point]",–
CCOC(=O)c1oc2ccc(Br)cc2c1NC(=O)CN1CCN(C)CC1,"inconclusive [cytotoxic, partial curve]",–

SMILES,Potency,"activity, negative = toxicity"
Cc1ccc(CN2CCC(c3cc(-c4cccs4)n[nH]3)CC2)cc1,"inconclusive [cytotoxic, single point]",–
CCOc1cc(C(=O)Nc2ccc3c(c2)OCO3)ccc1OCCOc1ccccc1Cl,–,inconclusive: -12.7% [cytotoxic]
Cc1cccnc1C(NC(=O)C1CCN(CCOc2ccc(F)cc2)CC1)c1ccc(F)cc1 (stereo not given),"inconclusive [cytotoxic, single point]",–
COc1ccc(C(=O)NCCn2cc(SCC(N)=O)c3ccccc32)cc1,–,inactive: 4.47%
COc1ccccc1N(CC(=O)N/N=C/c1ccc(OCC(=O)NCc2ccco2)cc1)S(=O)(=O)c1ccc(C)cc1,"inconclusive [cytotoxic, partial curve]",–
CCOc1cc(/C=C2\SC(=NC)N(C)C2=O)cc(Cl)c1OC(C)=O,–,inactive: -11.3%
O=C(NCc1ccccc1)c1ccc(S(=O)(=O)Nc2cccc(C(F)(F)F)c2)cc1,"inconclusive [cytotoxic, single point]",–
O=C1c2ccccc2C(=O)N1CCCCSc1nnc(-c2ccc(OC(F)F)cc2)o1,–,inactive: 4.8%
CC(=O)c1cc(NC(=O)c2cccc(C(F)(F)F)c2)c(=O)oc1C,"inconclusive [cytotoxic, single point]",–
c1ccc(-c2n[nH]c(-c3ccccn3)n2)nc1,"inconclusive [cytotoxic, single point]",–
O=C(c1ccco1)N(Cc1ccc([N+](=O)[O-])cc1)c1ccc(Cl)cc1,"inconclusive [cytotoxic, single point]",–
CC(C)S(=O)(=O)c1csc(C(=O)Nc2ccc(F)cc2)c1N,"inconclusive [cytotoxic, partial curve, poor fit]",–
Cc1cc(=O)nc2c3ccccc3n(CC(=O)NCCC3=CCCCC3)n12,–,inactive: -5.63%
O=c1c2c3c(sc2ncn1/N=C/c1ccc([N+](=O)[O-])o1)CCCC3,"inconclusive [cytotoxic, single point]",–
CCc1ccccc1N1C(=O)C2CC=CCC2C1=O (stereo not given),–,inactive: 1.69%
CC1(C(=O)NCc2cccc(C(F)(F)F)c2)CCN1C1Cc2ccccc2C1 (stereo not given),"inconclusive [cytotoxic, single point]",–
N#C/C(=C/c1cn(-c2ccccc2)nc1-c1cccc(OCc2ccccc2)c1)C(=O)NCCCn1ccnc1,"inconclusive [cytotoxic, single point]",–
Cc1noc(-c2ccccc2)c1NC(=O)Nc1ccc(Cl)cc1,"inconclusive [cytotoxic, single point]",–
CCCS(=O)(=O)NCc1cn2cccc(C)c2n1,"inconclusive [cytotoxic, single point]",–
O=C1c2cccc3c([N+](=O)[O-])ccc(c23)C(=O)N1O,"inconclusive [cytotoxic, partial curve]",–
FC(F)(F)c1cccc(-c2cc3nc(NC4CCCCC4)ccn3n2)c1,"inconclusive [cytotoxic, single point]",–
O=[N+]([O-])c1ccc(C=NNc2ccccc2)cc1,"inconclusive [cytotoxic, partial curve, poor fit]",–
